These results are taken from a collection of fitness landscapes (doi:10.1016/j.celrep.2020.107928).

The full ranking holds about 81,000 sequences; the median of “one-hybrid fitness for binding NBS DNA” is about -0.1, and the highest 2% start at about 0.36. This is one part of the list. Bounds are passed on as bounds.

To fix the notation:
B1: Caulobacter ParB omega fusion; a variant is named by its letters at X, in order, B8GW30 (parent)
chain: MESVVVGEPGMSEGRRGLGRGLSALLGEVDAAPAQAPGEQLGGSREAPIEILQRNPDQPRRTFREEDLEDLSNSIREKGVLQPILVRPSPDTAGEYQIVAGERAWRAAQRAGLKTVPIMVRELDDLAVLEIGIIENVQRADLNVLEEALSYKVLMEKFERTQENIAQTIGKSXSHVANXMRLLXLPDEVQSYLVSGELTAXHARAIAAAADPVALAKQIIEGGLSVRETEALARKAPNLSAGKSKGGRPPRVKDTDTQALESDLSSVLGLDVSIDHRGSTGTLTITYATLEQLDDLCNRLTRGI

Variants of B1 are the subject of the assay. Put plainly: one-hybrid fitness for binding NBS DNA (the Noc-binding site; scaled: cognate 1, non-cognate 0); higher = stronger binding. The following applies: with NBS DNA site. The essentials:
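Values were rescaled so that cognate is 1 and non-cognate is 0. Each is a fitness, the log change in a variant's read ratio to wild type from Illumina reads of plasmids before and after selection, with three replicate libraries pooled and variants under 10 reads dropped. Selection of the Caulobacter ParB libraries, four specificity codons randomised, used E. coli USO with a HIS3 reporter, site 19 bp from the promoter, on M9-minus-histidine with 0.1 mM IPTG and 5 mM 3-AT for 48 hours at 37°C.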
For the variant PDMG, the “one-hybrid fitness for binding NBS DNA” value was not above 0.2. For HKAY, the “one-hybrid fitness for binding NBS DNA” value is not above 0.2. For RPIR the value was not above 0.2. In the case of PCLT it was not above 0.2; in that of VNTS, not above 0.2. In the case of WKDC, the “one-hybrid fitness for binding NBS DNA” value was not above 0.2. For RIIV the value was not above 0.2; for IIVG, not above 0.2. For IPIE the value was not above 0.2. For the variant HPVW, the “one-hybrid fitness for binding NBS DNA” value was not above 0.2. For KDTM the value was not above 0.2; for AQDG, not above 0.2; for PYLL, not above 0.2. For PPID, the “one-hybrid fitness for binding NBS DNA” value was not above 0.2. As for GFQG, the “one-hybrid fitness for binding NBS DNA” value was not above 0.2. In the case of TQAR it was not above 0.2; in that of RPKH, not above 0.2. Turning to YRWT, the “one-hybrid fitness for binding NBS DNA” value was not above 0.2. In the case of KDLA it was not above 0.2. For ECCC the value was not above 0.2; for WKKC, not above 0.2; for MVPN, not above 0.2. For FSPF the value was not above 0.2; for RTTD, not above 0.2; for SDLA, not above 0.2. As to APQC, the “one-hybrid fitness for binding NBS DNA” value is not above 0.2.

With AMSR, the “one-hybrid fitness for binding NBS DNA” value was not above 0.2. In the case of MFWR it was not above 0.2; in that of YPYG, not above 0.2. In the case of MSYL it was not above 0.2. For the variant ILQL, the “one-hybrid fitness for binding NBS DNA” value was not above 0.2.

On to PRHR, for which the “one-hybrid fitness for binding NBS DNA” value is not above 0.2. In the case of RVKY it was 0.293; in that of RKDG, not above 0.2. For QHES the value was not above 0.2. Take HACH: the “one-hybrid fitness for binding NBS DNA” value was not above 0.2. In the case of RNQI it was not above 0.2; in that of RTEM, not above 0.2. For KGNQ the value was not above 0.2; for IIFS, not above 0.2. With FWNV, the “one-hybrid fitness for binding NBS DNA” value is not above 0.2. In the case of AAPM it was not above 0.2; in that of ERDC, not above 0.2. CPAS: the “one-hybrid fitness for binding NBS DNA” value was not above 0.2.

As for QIHA, the “one-hybrid fitness for binding NBS DNA” value was found to be 0.201. For DAVF the value was not above 0.2; for SIFR, not above 0.2. In the case of WKMS it was not above 0.2. For QSCV the value was not above 0.2. Turning to AYNK, the “one-hybrid fitness for binding NBS DNA” value is not above 0.2.

AARE: the “one-hybrid fitness for binding NBS DNA” value is not above 0.2. In the case of FTSS it was not above 0.2. For PYVN, the “one-hybrid fitness for binding NBS DNA” value was not above 0.2.

On to CQDS, for which the “one-hybrid fitness for binding NBS DNA” value was not above 0.2. For the variant QPPL, the “one-hybrid fitness for binding NBS DNA” value is not above 0.2. TPKA: the “one-hybrid fitness for binding NBS DNA” value was not above 0.2. For QQCL the value was not above 0.2. For VPIG the value was not above 0.2.

Consider YSDY, for which the “one-hybrid fitness for binding NBS DNA” value was not above 0.2. As for GDRI, the “one-hybrid fitness for binding NBS DNA” value is not above 0.2. For YHHV the value was not above 0.2; for LWRV, not above 0.2. As for MALL, the “one-hybrid fitness for binding NBS DNA” value was not above 0.2. For FGHV the value was not above 0.2; for GDIR, not above 0.2.

Regarding PLTG, the “one-hybrid fitness for binding NBS DNA” value is not above 0.2. In the case of ENPR it was not above 0.2.

Regarding KVFK, the “one-hybrid fitness for binding NBS DNA” value was not above 0.2. In the case of VNLW it was not above 0.2. For QRDN the value was not above 0.2; for WMNR, not above 0.2. In the case of EWTC it was not above 0.2.

As for AKMG, the “one-hybrid fitness for binding NBS DNA” value was not above 0.2. In the case of GHPW it was not above 0.2; in that of YMRE, not above 0.2; in that of YTSE, not above 0.2. For NYGF the value was not above 0.2; for LGND, not above 0.2; for WTGC, not above 0.2.

As to SPFF, the “one-hybrid fitness for binding NBS DNA” value was not above 0.2.

As for PHEI, the “one-hybrid fitness for binding NBS DNA” value is not above 0.2. For LGIY the value was not above 0.2; for GYLL, not above 0.2; for THDV, not above 0.2. For HMMD the value was not above 0.2; for CSLS, not above 0.2.

In the case of RFKG, the “one-hybrid fitness for binding NBS DNA” value is not above 0.2. As for CWIY, the “one-hybrid fitness for binding NBS DNA” value was not above 0.2. As to KLWR, the “one-hybrid fitness for binding NBS DNA” value was not above 0.2.

Regarding QAMT, the “one-hybrid fitness for binding NBS DNA” value was found to be 0.346. Regarding RKPG, the “one-hybrid fitness for binding NBS DNA” value is not above 0.2. For MMHF the value was not above 0.2. In the case of LDHS it was not above 0.2; in that of QQCI, not above 0.2; in that of QSLQ, not above 0.2. For QYID the value was not above 0.2; for DTVD, not above 0.2.
